According to the supplement of paper PMC11383711:
The list shows a part of the results. Binding of human antibodies (heavy:light variable regions, tested as scFv in one mRNA-display pool) to influenza hemagglutinin, with or without the stem antibody CR9114 bound first. Score = (mean enrichment − median) / interquartile range of that screen; higher = more enriched, 0 = typical non-binder. Active = above the paper's cut-off per screen: stems 28; unblocked H1 Solomon Islands 5, H1 Michigan 3, H3 5, H5 19, H7 2.85, both B 5; blocked 9, 7, H5 10, H7 10, B Phuket 10, B Lee 11.5. Scores are scaled within each screen and are no affinities; replicates correlate at about 0.6 to 0.9, and antibodies rare in the pool are noisier.

What was measured:
Assay in all cases: mRNA display binding score; higher = more enriched on the antigen
[1] = target: Influenza A H1N1 A/Michigan/45/2015 hemagglutinin ectodomain
Description: (§1)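 A pool of natively paired antibodies, displayed as scFv on mRNA, was selected once on antigen-coated beads and sequenced before and after; two replicates.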

[2] = target: Influenza A H1N1 A/Solomon Islands/3/2006 hemagglutinin ectodomain
Description: as §1

[3] = target: Influenza A H3N2 A/Singapore/INFIMH-16-0019/2016 hemagglutinin ectodomain; details: antigen blocked with: nothing
Description: as §1

[4] = target: Influenza A H5N1 A/Qinghai/1A/2005 hemagglutinin ectodomain
Description: as §1

[5] = target: Influenza A H7N9 A/Shanghai/2/2013 hemagglutinin ectodomain
Description: as §1

[6] = target: Influenza B/Lee/1940 hemagglutinin ectodomain
Description: as §1

[7] = target: Influenza B/Phuket/3073/2013 hemagglutinin ectodomain
Description: as §1

[8] = antigen blocked with: 2 µM CR9114 IgG

| Binder | mRNA display binding score [1, 8] | mRNA display binding score ([1]; antigen blocked with: nothing) | mRNA display binding score [2, 8] | mRNA display binding score ([2]; antigen blocked with: nothing) | mRNA display binding score [3] | mRNA display binding score [4, 8] | mRNA display binding score ([4]; antigen blocked with: nothing) | mRNA display binding score [5, 8] | mRNA display binding score ([5]; antigen blocked with: nothing) | mRNA display binding score [6, 8] | mRNA display binding score ([6]; antigen blocked with: nothing) | mRNA display binding score [7, 8] | mRNA display binding score ([7]; antigen blocked with: nothing) |
| --- | --- | --- | --- | --- | --- | --- | --- | --- | --- | --- | --- | --- | --- |
| 051-09-5D01 (protein) chain 1: QVQLVESGGGVVQPGRSLRLSCAASGFAFSNYAMHWVRQAPGKGLESVAVVLYDGNSEYYADSVKGRFTISRDTSKNLVYLQMNSLRPEDTAVYYCVKDSEYADYDPVYWGQGTLVTVSS chain 2: DIQMTQSPSTLSASVGDRVTITCRASHSVSTWLAWYQQKPGKAPKPLIYKASNLESGVPSRFSGSGSGTEFTLTISSLQPDDFATYYCKQYNRYLWTFGQGTKVEIK | active: 42.7 | inactive: 0.285 | inactive: 1.83 | inactive: 0.906 | inactive: -0.366 | inactive: 0.503 | inactive: 0.0991 | inactive: -0.423 | inactive: -0.327 | inactive: -0.646 | inactive: 0.69 | inactive: -0.328 | inactive: -0.261 |
| antibody 2F04 (protein) chain 1: EVQLLESGGGLVQPGGSLRLSCAASGFTFSAYSMSWVRQARGKGLEWVSGIGGSGVSIHYADSVKGRFTISRDNSKNTVYLQMNSLRAEDTAVYYCAKSRAWDLKGWFDPWGQGTLVTVSS chain 2: DIVMTQSPDSLAVSLGERATINCKSSQTVLLNSNNKNSLVWYQQKPGQPPKLLIYWASTRESGVPDRFSGSGSGTDFTLTISSLQVEDVAVYYCQQYYSAPLTFGGGTKVEIK | inactive: 0.403 | inactive: 0.219 | inactive: 0.129 | inactive: -0.244 | active: 12.8 | inactive: 0.426 | inactive: -0.0581 | inactive: 0.192 | inactive: 0.535 | inactive: -0.231 | inactive: 0.00111 | inactive: 0.309 | inactive: 0.0802 |
| 16.ND.89 (protein) chain 1: QVQLVQSGAEVKEPGASVKVSCKVFGYTLTDLSMHWVRQAPGKGLEWMGGFDPEDDETIYAQNLQGRVTMTEDTSTDTAYMELSSLRSEDTAVYYCTTRDYYDSSGYLVDYWGQGTLVTVSS chain 2: DIVMTQSPDSLAVSLGERATINCKSSQSVLHWSNNKNYLAWYQQRPGQPPKLLISWASTRESGVPDRFSGSGCGTDFTLTISNLQPEDVAVYYCQQYYNTPPFTFGPGTKVDIK | inactive: -0.113 | inactive: -0.34 | inactive: -0.0512 | inactive: -0.0949 | inactive: 0.172 | inactive: -0.149 | inactive: -0.229 | inactive: 0.278 | inactive: -0.409 | inactive: 0.282 | inactive: -0.329 | inactive: -0.402 | inactive: -0.264 |
| AG4-C01 (protein) chain 1: VQLQESGPGLVKPSETLSLTCTVSGGSVTSGNYHWSWIRQSPGKGLEWIAYKYYSGNTKYNPSLKSRVTISLDTSKNQISLKMTSVTAEDTAVYYCARVVLYGSGSYMWFDPWGQGTLVTVSS chain 2: DIQMTQSPSSLSASVGDRVTITCRASQNIITYLHWYQQKPGKAPKLLIYATSSLQSGVPSRFSGSGSGTDFTLTISSLQPEDFATYYCQQSFSTLLTFGGGTKVEIK | inactive: 1.33 | inactive: 0.244 | inactive: 0.535 | inactive: -0.435 | inactive: -0.272 | inactive: 0.929 | inactive: -0.406 | inactive: -0.187 | inactive: 0.229 | inactive: -0.227 | inactive: 0.254 | inactive: -0.0611 | inactive: 0.207 |
| C8-B04 (protein) chain 1: VQLQESGPGLVKPSETLSLTCTVSGGSIGNYYWNWVRQPPGKGLEWIGYVYNNGGTSYNTSLKSRVTISVDTSKKQFSLRLSSVTAADTAMYYCARLGFGEVFSFKRYYYYGLDVWGRGTTVTVSS chain 2: DIVMTQSPDTLSLSPGERATLSCRASQSVTSSSLAWYQQKVGQSPRLLIYGASTRATGTPARFSGSGSETDFTLTISSLEPEDFAVYYCQQYGSSVLTFGPGTKVDIK | inactive: 0.368 | inactive: 1.84 | inactive: 0.133 | inactive: 0.788 | inactive: 1.36 | inactive: 0.28 | inactive: 0.661 | inactive: -0.192 | inactive: 1.88 | inactive: -0.429 | inactive: 0.287 | inactive: 0.177 | inactive: 0.252 |
| AG9-4B03 (protein) chain 1: QVQLQESGPGLVKPSETLSLTCADPHSLISSRYYWGWIRQPPGKGLEWIGTIFQSGDTFYNPSLESRVTLFVDTSKNQTSLQLTSVTAADAAVYYCARGLAATGDYYWYALDVWGQGTTVTVSS chain 2: EIVLTQSPGTLSLSPGERATLSCRASHSISSGYLAWYQHKPGQAPRLVISDTSDRATGIPDRFSGSGSGTDFTLTFSRLEPEDSAVYYCHQYGILPWTFGQGTKVEIK | inactive: 0.395 | inactive: -0.242 | inactive: 0.0694 | inactive: -0.32 | inactive: -0.203 | inactive: -0.0385 | inactive: -0.178 | inactive: -0.473 | inactive: -0.0673 | inactive: -0.554 | inactive: -0.202 | inactive: -0.235 | inactive: -0.304 |
